Measurements reported in PubChem BioAssay AID1768 (National Center for Advancing Translational Sciences (NCATS), 2009).
About 620 (0.23%) of roughly 270,000 compounds were called active. Inconclusive results, whose numbers are uncertain, are shown with a selection of clear calls. Calls come from the whole dose curve; as a rule, active = well fitted inhibition curve with a large enough effect in the polarisation, with a control signal flat (not every such curve was filed as active); inconclusive = small, poorly fitted or top-dose-only effect, or effect the other way, or a change in a side signal; inactive = no such curve, though single readings can be large or run the other way; the % refers to the polarisation. Where the call is inconclusive, the potency comes from a doubtful curve fit. “Side channel” marks fits to a control or component signal instead of the main read-out.

What follows are compounds tested against Menin (Homo sapiens) (UniProt O00255) (assay: qHTS Assay for Inhibitors Targeting the Menin-MLL Interaction in MLL Related Leukemias: Competition With Texas Red Labeled MLL-derived Mutant Peptide). Details: fluorescence polarization; series mostly up to 61.6 µM.
UniProt O00255, sequence (O00255 whole entry, looked up): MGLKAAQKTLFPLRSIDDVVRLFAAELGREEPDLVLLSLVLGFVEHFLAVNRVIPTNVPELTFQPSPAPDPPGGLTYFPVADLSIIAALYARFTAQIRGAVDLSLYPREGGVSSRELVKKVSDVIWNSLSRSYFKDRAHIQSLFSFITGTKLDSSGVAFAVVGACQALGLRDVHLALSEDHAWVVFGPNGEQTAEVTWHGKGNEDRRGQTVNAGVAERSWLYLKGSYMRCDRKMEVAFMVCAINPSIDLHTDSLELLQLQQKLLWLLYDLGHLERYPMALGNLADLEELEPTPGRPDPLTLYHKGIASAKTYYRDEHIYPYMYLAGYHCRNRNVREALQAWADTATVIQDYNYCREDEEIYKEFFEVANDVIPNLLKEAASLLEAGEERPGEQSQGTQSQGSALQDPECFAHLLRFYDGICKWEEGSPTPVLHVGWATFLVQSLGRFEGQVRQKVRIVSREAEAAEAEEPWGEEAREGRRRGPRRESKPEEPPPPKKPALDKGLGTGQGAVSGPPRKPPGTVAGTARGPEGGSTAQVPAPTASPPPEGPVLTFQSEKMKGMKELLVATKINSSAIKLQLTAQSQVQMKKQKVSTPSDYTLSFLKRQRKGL
Potency is the fitted concentration of half-maximal effect; tags give direction and shape of the fitted curve or compound fluorescence and quenching.

SMILES | Potency
CCCCC(C)/C=C(C)/C=C(\C)C(=O)NC1=CC(O)(/C=C/C=C/C=C/C(=O)NC2=C(O)CCC2=O)C2OC2C1=O (configuration not stated) | inconclusive: 15.8 µM [quencher, side channel, partial curve]
COC(=O)c1cc2c(=O)c3ccccc3oc2nc1/C=C/N(C)C | inconclusive: 39.8 µM [fluorescent, single point]
COc1ccc2cc(C(c3nnnn3CCc3ccccc3)N3CCC(O)CC3)c(=O)[nH]c2c1 (configuration not stated) | inconclusive: 25.1 µM [fluorescent, side channel, single point]
COc1ccccc1N(CC(=O)Nc1ccc2c(c1)OCCO2)S(=O)(=O)c1ccc(C)cc1 | inconclusive: 39.8 µM [quencher, side channel, single point]
Cc1ccc2nc(SCc3nc4cc(Cl)ccc4c(=O)[nH]3)[nH]c2c1 | inconclusive: 39.8 µM [quencher, side channel, single point]
NC(=O)c1cc(N)ccc1N1CCCC1 | inconclusive: 39.8 µM [inhibitor, single point]
N=C1/C(=C/c2cccn2Cc2ccc(Cl)cc2)C(=O)N=C2SC=CN12 | inconclusive: 14.1 µM [quencher, side channel, partial curve]
Cc1ccc(-c2nc3ccccc3s2)cc1NC(=S)NC(=O)/C=C/c1ccco1 | inconclusive: 28.2 µM [quencher, side channel, partial curve]
CCN1/C(=C2\SC(=S)N(Cc3ccccc3)C2=O)Sc2ccccc21 | inconclusive: 8.91 µM [inhibitor, partial curve]
COc1ccc(S(=O)(=O)Nc2ccccc2C(=O)NCc2ccco2)cc1 | inconclusive: 28.2 µM [quencher, side channel, partial curve]
Oc1ccccc1CNc1cnc2ccccc2c1 | inactive
COc1ccc(C(C(=O)NCC2CCCO2)N(C(=O)CNC(=O)c2cccs2)c2ccc(C(C)=O)cc2)cc1OC (configuration not stated) | inconclusive: 17.8 µM [inhibitor, partial curve]
O=C(C[N+]1(CC#Cc2ccccc2)CCOCC1)c1ccccc1 | inconclusive: 14.1 µM [inhibitor, partial curve]
O=C(c1ccccc1)N1N=C(c2ccccc2O)CC1c1ccc(Br)cc1 (configuration not stated) | inconclusive: 1.58 µM [inhibitor, partial curve]
COc1cccc(C(=O)/C=C/Nc2cccc(O)c2)c1 | inconclusive: 28.2 µM [quencher, side channel, partial curve]
Cc1sc2ncnc(N/N=C/c3ccc(O)cc3)c2c1C | inconclusive: 28.2 µM [quencher, side channel, partial curve]
CCOC(=O)c1sc(N2C(=O)C(O)=C(C(=O)c3ccco3)C2c2ccc(C)o2)nc1C (configuration not stated) | inconclusive: 20 µM [quencher, side channel, partial curve]
CCOc1ccc(NC(=O)/C(C#N)=C/c2cn(CC(=O)O)c3ccccc23)cc1 | inconclusive: 14.1 µM [quencher, side channel, partial curve]
O=C(NCc1ccc(Cl)cc1)c1cc(=O)[nH]c2ccccc12 | inconclusive: 3.16 µM [fluorescent, side channel, full curve, poor fit]

SMILES | Potency
CCn1c(NCc2ccccc2NS(=O)(=O)c2ccc(C)cc2)nc2ccccc21 | inconclusive: 5.62 µM [quencher, side channel, partial curve]
COc1ccc(CN(C)S(=O)(=O)c2nnc(NC(=O)c3ccccc3OC)s2)cc1OC | inconclusive: 39.8 µM [inhibitor, single point]
CCOC(=O)c1cc2c(N)c(C(=O)c3ccc(Br)cc3)sc2[nH]c1=O | inconclusive: 7.94 µM [quencher, side channel, full curve, poor fit]
CCCCCCCC1=CC2=CC(=O)C(C)(OC(C)=O)C(=O)C2=CN1CCc1ccccc1 (configuration not stated) | inconclusive: 0.631 µM [inhibitor, full curve]
Cc1ccc(S(=O)(=O)N2CCCCC2C(=O)N2CCN(c3ccccc3F)CC2)cc1 (configuration not stated) | inconclusive: 25.1 µM [inhibitor, single point]
CCOC(=O)C1CCCN(c2c(N3CCC(N4CCCCC4)CC3)c(=O)c2=O)C1 (configuration not stated) | inconclusive: 28.2 µM [inhibitor, partial curve]
CCS(=O)(=O)c1ccc2oc(Nc3cc(C)cc(C)c3)nc2c1 | inconclusive: 10 µM [quencher, side channel, partial curve]
COc1cc(/C=C/C(=O)/C=C(O)/C=C/c2ccc(O)c(OC)c2)ccc1O | inactive
CC(=O)COc1ccc2c(c1C)O/C(=C\c1ccco1)C2=O | inconclusive: 35.5 µM [quencher, side channel, single point]
Nc1nc2c(ncn2C2OC(COC(=O)c3ccccc3)C(OC(=O)c3ccccc3)C2OC(=O)c2ccccc2)c(=O)[nH]1 (configuration not stated) | inconclusive: 35.5 µM [fluorescent, side channel, partial curve]
Cc1cc(NC(=O)c2cccnc2)ccc1NC(=O)c1cc2ccccc2o1 | inconclusive: 39.8 µM [inhibitor, single point]
Brc1ccc(-c2csc(N/N=C/c3cccnc3)n2)cc1 | inconclusive: 14.1 µM [quencher, side channel, partial curve]
Clc1ccc(CSc2ccc(-c3cccnc3)nn2)cc1 | inconclusive: 14.1 µM [inhibitor, partial curve]
CN(C)c1ccc(NC(=O)Cn2c(=O)n(Cc3ccccc3)c(=O)c3ccccc32)cc1 | inconclusive: 14.1 µM [quencher, side channel, partial curve]
O=C(O)CCc1ccc(-c2cccs2)n1CC1CCCO1 (configuration not stated) | inactive
CNS(=O)(=O)c1ccc(NC(=O)Nc2cccc(F)c2)cc1 | inconclusive: 11.2 µM [quencher, side channel, partial curve]
CC(O)CNCCOc1ccccc1-c1ccccc1 (configuration not stated) | inconclusive: 25.1 µM [inhibitor, partial curve]
Clc1ccc(N/N=C/c2cccs2)nn1 | inconclusive: 39.8 µM [quencher, side channel, single point]
CC(C)(C)c1ccc(OCCCC(=O)Nc2ccc(S(N)(=O)=O)cc2)cc1 | inconclusive: 39.8 µM [inhibitor, single point]

SMILES | Potency
COc1ccccc1OC(=O)CCN1c2ccccc2Sc2ccccc21 | inconclusive: 17.8 µM [quencher, side channel, partial curve]
O=[N+]([O-])c1ccc(/C=N/Nc2nc(-c3ccccc3)c3cc(Br)ccc3n2)o1 | inconclusive: 17.8 µM [quencher, side channel, partial curve]
O=C(CCC1CCCCC1)N1CCN(Cc2ccc3c(c2)OCO3)CC1 | inconclusive: 22.4 µM [fluorescent, side channel, single point]
O=C(OC1CCCCC1=O)c1cc(Cl)ccc1[N+](=O)[O-] (configuration not stated) | inconclusive: 10 µM [inhibitor, partial curve]
Cc1[nH]n(-c2cccc3ccccc23)c(=O)c1/C=N/c1sc2c(c1C#N)CCC2 | inconclusive: 28.2 µM [quencher, single point]
CC1=CC(C#N)(C#N)C(C#N)(C#N)C(c2ccccc2)N1 (configuration not stated) | inactive
COc1ccc(C2C3C=CCCC3(C)C(=O)N2Cc2ccccc2)cc1Cl (configuration not stated) | inactive
CCn1cc(C=C2C(=O)c3ccccc3C2=O)c2ccccc21 | inconclusive: 11.2 µM [quencher, side channel, partial curve, poor fit]
COc1ccc(OC)c(S(=O)(=O)NC2CCSc3ccccc32)c1 (configuration not stated) | inconclusive: 15.8 µM [inhibitor, partial curve]
Cc1ccccc1N1CCN(CCCN2C(=O)CC(=C(c3ccccc3)c3ccccc3)C2=O)CC1 | inconclusive: 6.31 µM [fluorescent, side channel, partial curve]
O=C(Nc1ccc(C(F)(F)F)cc1)c1ccc(NC(=O)C2CCCO2)cc1 (configuration not stated) | inconclusive: 39.8 µM [fluorescent, side channel, single point]
Cc1ccc(-c2csc(NCCn3c(-c4ccncc4)nc4ccccc43)n2)cc1 | inconclusive: 28.2 µM [quencher, side channel, single point]
CCc1cc(-c2onc(C)c2-c2cscn2)c(O)cc1OC | inactive
COc1cc(/C=C2/C(=N)N3C(=NC2=O)SN=C3S(C)(=O)=O)ccc1OS(=O)(=O)c1ccc(C)cc1 | inconclusive: 8.91 µM [quencher, side channel, partial curve]
Cc1ccc(NC(=O)CC2CS(=O)(=O)CC2CC(=O)Nc2ccc(C)c(C)c2)cc1C (configuration not stated) | inactive
Cc1ccc(CNCC(O)(c2ccccc2)c2ccc(F)cc2)cc1 (configuration not stated) | inconclusive: 3.98 µM [fluorescent, side channel, single point]
Cc1ccc(-c2nc(N)sc2-c2ccccc2)cc1C | inconclusive: 28.2 µM [quencher, side channel, partial curve]
O=C(O)c1cccc(Nc2nc(-c3ccc([N+](=O)[O-])cc3)nc3ccccc23)c1 | inconclusive: 6.31 µM [quencher, side channel, partial curve]
Cc1cc(SCC(=O)c2cc3ccccc3o2)nc2ccccc12 | inconclusive: 35.5 µM [fluorescent, side channel, single point]
